About 290 (0.32%) of roughly 91,000 compounds were called active. Inconclusive results, whose numbers are uncertain, are shown with a selection of clear calls. The call rests on the fitted dose curve; in most records, active means well fitted inhibition curve with a large enough effect; inconclusive means small, poorly fitted or top-dose-only effect; inactive means no such curve, though single readings can be large or run the other way. Potencies of inconclusive entries are doubtful fits and often do not repeat.
Target: Single-stranded DNA cytosine deaminase (Homo sapiens) (UniProt Q9GZX7)
UniProt Q9GZX7, sequence (Q9GZX7 whole entry, looked up): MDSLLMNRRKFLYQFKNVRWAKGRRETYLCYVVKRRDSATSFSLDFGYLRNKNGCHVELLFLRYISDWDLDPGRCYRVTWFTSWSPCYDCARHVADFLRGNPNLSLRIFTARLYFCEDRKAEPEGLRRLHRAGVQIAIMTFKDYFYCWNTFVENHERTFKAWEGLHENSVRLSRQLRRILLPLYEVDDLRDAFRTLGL
Assay: Primary qHTS assay for inhibitors of Activation Induced Cytidine Deaminase (AID): AID signal; further: nearly all actives have a fitted effect of over 25% in size
Settings: AID deamination FRET fluorescence, UDG-coupled, 4 h; activity change, negative = inhibition: at 115 µM (top of the series)
On the % scale 0 is the no-effect control and ±100 the full control effect; potency means the concentration at half of the fitted maximal effect; tags describe the fitted curve by direction and shape.

Row | SMILES | activity change, negative = inhibition | Potency
1 | CCc1nc(NCC(C)O)c(C#N)c2c1CCCC2 (centres undefined) | inconclusive: -30.5% [inhibitor] | 
2 | Cc1cccc(CSc2nnc(COc3ccc(Cl)c(C)c3)n2C)c1 |  | inconclusive: 79.4 µM [inhibitor, partial curve, poor fit]
3 | Cn1c(C(=O)N(Cc2ccccc2)Cc2ccccc2)cc2c(=O)n3ccccc3nc21 |  | inconclusive: 39.8 µM [inhibitor, full curve]
4 | CCC(CC)C(=O)Nc1c(C(=O)N2CCN(c3ccccc3F)CC2)oc2ccccc12 |  | inconclusive: 3.55 µM [inhibitor, full curve, poor fit]
5 | CCOc1ccccc1NC(=O)CSC1=Nc2ccccc2C2=NC(CC(=O)NC3CCCCC3)C(=O)N12 (centres undefined) |  | inconclusive: 50.1 µM [inhibitor, partial curve, poor fit]
6 | CCCn1c2ccccc2c2cnn(CC(=O)N(CCCOC(C)C)Cc3ccco3)c(=O)c21 |  | inconclusive: 50.1 µM [inhibitor, partial curve, poor fit]
7 | COc1ccc(-c2noc(-c3ccc(NC4CCCCC4)c([N+](=O)[O-])c3)n2)cc1OC |  | inconclusive: 89.1 µM [inhibitor, single point]
8 | CCOc1ccc(N2CC(c3nc4ccccc4n3CCC3CCCCC3)CC2=O)cc1 (centres undefined) |  | inconclusive: 89.1 µM [inhibitor, partial curve, poor fit]
9 | Cc1ccc(S(=O)(=O)c2cn(C)c3cc(N4CCCC4)c(F)cc3c2=O)c(C)c1 | inactive: -9.07% | 
10 | O=C(OCCOc1ccccc1)c1ccccc1C(=O)c1ccc(Cl)cc1 | inactive: 1.36% | 
11 | COc1ccc(NC(=O)CSc2nc3c(c(=O)[nH]2)CN(Cc2ccccc2)CC3)cc1Cl |  | inconclusive: 89.1 µM [inhibitor, single point]
12 | Cc1cc(=O)oc2cc(OCC(=O)NCC(C)(c3ccccc3)c3ccccc3)ccc12 |  | inconclusive: 79.4 µM [inhibitor, partial curve, poor fit]
13 | COc1ccc(NC(=O)c2c(C)oc3ccc(O)c(CN4CCCC(C)C4)c23)cc1Cl (centres undefined) | inactive: -17% | 
14 | Cc1ccc(-n2c(SCc3nc(-c4ccccc4C)no3)nnc2-c2ccncc2)cc1C |  | active: 31.6 µM
15 | CCOC(=O)c1c(-c2ccc(C)cc2)csc1NC(=O)c1ccc(C(C)(C)C)cc1 |  | inconclusive: 79.4 µM [inhibitor, partial curve, poor fit]
16 | Cc1cc(C(=O)NC(C)c2cccc(C(F)(F)F)c2)c(C)o1 (centres undefined) | inactive: -9.06% | 
17 | Cc1ccc(-c2csc(=Nc3ccccc3)n2CCCO)cc1 |  | inconclusive: 50.1 µM [inhibitor, partial curve, poor fit]
18 | Cc1ccc(NC(=O)C2=C(c3ccccc3)NC(=S)NC2c2ccc(Cl)cc2)cc1 (centres undefined) | inactive: -6.89% | 
19 | Cc1ccc(N2CC(c3nnc(Cc4ccc(F)cc4Cl)o3)CC2=O)cc1 (centres undefined) |  | inconclusive: 39.8 µM [inhibitor, partial curve, poor fit]
20 | Cn1nc(C(=O)NCCc2ccccc2)c2ccccc2c1=O | inactive: -2.43% | 
21 | O=[N+]([O-])c1cccc(N/N=C/c2ccc3ncccc3c2)c1 | inactive: -11.8% | 
22 | CCn1cc2nc(SCc3cccc(C(F)(F)F)c3)n(CCc3ccccc3)c(=O)c2n1 |  | inconclusive: 17.8 µM [inhibitor, full curve]
23 | O=C(CNc1ccccc1SC(F)F)N1CCNC1=O | inactive: -12.2% | 

Row | SMILES | activity change, negative = inhibition | Potency
24 | CCOc1ccc(Nc2c(S(=O)(=O)c3ccc(C)cc3)cnc3ccccc23)cc1 |  | inconclusive: 8.91 µM [inhibitor, partial curve, poor fit]
25 | COc1ccc2c(c1)C(O)(CC(=O)c1ccc(F)cc1)C(=O)N2 (centres undefined) | inactive: 9.41% | 
26 | N#Cc1ccc(Oc2cccc(-c3cnc4ccccc4n3)c2)cc1C#N |  | inconclusive: 79.4 µM [inhibitor, partial curve, poor fit]
27 | CCc1ccc(-n2c(=O)c3cccnc3n2CC(=O)N(CC)c2cccc(C)c2)cc1 |  | inconclusive: 20 µM [inhibitor, partial curve, poor fit]
28 | CCOC(=O)c1c(Nc2ccccc2)nnc(-c2ccccc2)c1-c1ccccc1 | inactive: 7.77% | 
29 | CC1=C(C(=O)OC(C)(C)C)C(c2ccc(Cl)cc2Cl)C(C#N)=C(N)O1 (centres undefined) | inactive: 6.92% | 
30 | COc1ccc(CNC(=O)CN2CCSc3ccccc32)c(OC)c1 | inactive: -8.79% | 
31 | CC(C)(C)OC(=O)N1CCC(c2c(C(=O)NCCN3CCOCC3)cnn2-c2ccccc2)CC1 |  | inconclusive: 56.2 µM [inhibitor, partial curve, poor fit]
32 | COc1ccc2c(C)cc(SCC(=O)Nc3nsc(-c4ccc(C(C)(C)C)cc4)n3)nc2c1 |  | inconclusive: 11.2 µM [inhibitor, full curve]
33 | COC(=O)c1ccc(C[N+]2(C)CCCCC2)cc1 | inactive: 2.85% | 
34 | Cc1cc(-c2ccc(S(=O)(=O)NCc3ccccc3Cl)s2)on1 |  | inconclusive: 89.1 µM [inhibitor, partial curve, poor fit]
35 | Cc1c(-c2cccc(NC(=O)Nc3ccccc3)c2)nc2ncccn12 |  | inconclusive: 89.1 µM [inhibitor, single point]
36 | Cc1ccc(S(=O)(=O)N2CCc3cc(C(=O)NCCc4ccccc4)ccc32)cc1 |  | inconclusive: 14.1 µM [inhibitor, partial curve, poor fit]
37 | Cc1nc(Nc2nc(CCC(C)C)cc(=O)[nH]2)nc2c(C)cccc12 |  | inconclusive: 12.6 µM [inhibitor, full curve, poor fit]
38 | CCCn1c(=O)n(CCC(=O)N(C)CC(=O)Nc2ccccc2Cl)c2ccccc21 | inactive: 2.38% | 
39 | CCOc1ccc(C(=O)Nc2onc3c2CCCC3)cc1 | inactive: 3.08% | 
40 | O=C(Nc1nnc(S(=O)(=O)N2CCCCCC2)s1)c1cccc(Br)c1 |  | inconclusive: 100 µM [inhibitor, single point]
41 | CC(C)CCNC(=O)NC(=O)CCl | inactive: -4.49% | 
42 | COc1ccc(Nc2nc3ccccc3nc2NS(=O)(=O)c2ccc(Cl)s2)cc1 |  | inconclusive: 79.4 µM [inhibitor, partial curve, poor fit]
43 | Cc1cccc(N2CCN(C(=O)Cn3ncc4c3-c3ccccc3OC4)CC2)c1C |  | inconclusive: 39.8 µM [inhibitor, partial curve]
44 | CCc1nn(CCCC(=O)N2CCN(c3ccc(OC)cc3)CC2)c(=O)c2cc3occc3n12 |  | inconclusive: 56.2 µM [inhibitor, partial curve, poor fit]
45 | O=c1[nH]c(C2CCCN(S(=O)(=O)c3ccccc3Cl)C2)nc2c1nnn2Cc1ccc(OC(F)(F)F)cc1 (centres undefined) |  | inconclusive: 79.4 µM [inhibitor, partial curve, poor fit]
46 | Nc1ccccc1C(=O)NCCc1ccccc1 | inactive: -3.31% | 

Row | SMILES | activity change, negative = inhibition | Potency
47 | Cc1cccc(C(=O)N(Cc2ccco2)Cc2ccccc2F)c1 |  | inconclusive: 79.4 µM [inhibitor, single point]
48 | Cc1ccc2c(c1)C(=O)OC(C(=O)Nc1ncc(Cc3ccccc3)s1)C2 (centres undefined) | inactive: 14% | 
49 | COc1cccc(C2C(=O)N(C3CCCCC3)CC(=O)N2Cc2ccc(Cl)cc2)c1 (centres undefined) |  | inconclusive: 50.1 µM [inhibitor, partial curve, poor fit]
50 | O=C(O)c1ccc(N2C(=O)c3[nH]nc(-c4ccccc4)c3C2c2cccc(F)c2)cc1 (centres undefined) |  | inconclusive: 89.1 µM [inhibitor, single point]
51 | Cc1ccccc1Cn1c(CN2CCN(c3cc(Cl)ccc3C)CC2)nc2c1c(=O)[nH]c(=O)n2C |  | inconclusive: 79.4 µM [inhibitor, partial curve, poor fit]
52 | CCCC1CCC(c2ccc(C(=O)Oc3cncc(Cl)c3)cc2)CC1 (centres undefined) | inactive: -2.54% | 
53 | Cc1ccc(S(=O)(=O)C(CC(=O)c2ccccc2)C(=O)c2ccc(Cl)cc2)cc1 (centres undefined) | inactive: 1.64% | 
54 | COc1ccc(NC(c2ccc(F)cc2)c2nnc(-c3ccccc3Cl)o2)cc1Cl (centres undefined) |  | inconclusive: 3.55 µM [inhibitor, full curve, poor fit]
55 | COc1ccc(CCNC(=O)Cn2ncc3c(C)n(Cc4ccccc4F)c(C)c3c2=O)cc1OC |  | inconclusive: 89.1 µM [inhibitor, single point]
56 | CN(Cc1ccccc1)C1CCN(Cc2ccc(Cl)cc2)CC1 | inactive: -9.45% | 
57 | CC(=O)N1CCC(NC(=O)c2cc(=O)c3ccccc3o2)CC1 | inactive: -1.7% | 
58 | COc1ccc2[nH]c(C(=O)NCc3ccco3)cc2c1 | inactive: 8.24% | 
59 | O=S(Cc1cccc(C(F)(F)F)c1)Cc1ccc(Cl)cc1Cl (centres undefined) | inactive: -12% | 
60 | Cc1oc(-c2cccc(Cl)c2)nc1CN1CCC(C(=O)NCCCN2CCN(c3cccc(Cl)c3)CC2)CC1 |  | inconclusive: 44.7 µM [inhibitor, partial curve, poor fit]
61 | Cc1ccc(-n2nnnc2C2(Nc3ccccc3)CCCCC2)cc1 | inactive: -9.43% | 
62 | Cc1ccc(S(=O)(=O)Nc2cccc(-c3ccc(N4CCCCC4)nn3)c2)s1 |  | inconclusive: 25.1 µM [inhibitor, partial curve, poor fit]
63 | COc1ccc(NC(=O)c2sc3nc4c(cc3c2N)CN(Cc2ccccc2)CC4)cc1 | inactive: 33.5% | 
64 | COc1ccc(C(=O)NCC(c2ccc(N(C)C)cc2)N2CCCC2)c(OC)c1 (centres undefined) |  | inconclusive: 79.4 µM [inhibitor, single point]
65 | CCCn1nc(C)cc1-c1nn2c(-c3cc(F)ccc3F)nnc2s1 | inactive: -10.7% | 
66 | Cc1cccc(C)c1-n1nnnc1SC(C(=O)N1CCCC1)c1ccccc1 (centres undefined) | inactive: -19.4% | 
67 | CCC(=O)N1CCc2cc(S(=O)(=O)NCCC(=O)Nc3ccc(C)cc3)ccc21 |  | inconclusive: 10 µM [inhibitor, full curve, poor fit]
68 | Cc1ccc2nc(/C(C#N)=C/c3cccc(O)c3)[nH]c2c1 | inactive: 8.47% | 
69 | CC(C)C(=O)Nc1ccc(Br)c(Cl)c1 | inactive: -9.45% | 

Reference: PubChem BioAssay AID1347428 (National Center for Advancing Translational Sciences (NCATS), 2020)
